This assay has as its target wild-type H1R (Homo sapiens, UniProt P35367). The assay is described as follows: cell-based.

Molecules are shown by their SMILES.

UniProt P35367, sequence (P35367 whole entry): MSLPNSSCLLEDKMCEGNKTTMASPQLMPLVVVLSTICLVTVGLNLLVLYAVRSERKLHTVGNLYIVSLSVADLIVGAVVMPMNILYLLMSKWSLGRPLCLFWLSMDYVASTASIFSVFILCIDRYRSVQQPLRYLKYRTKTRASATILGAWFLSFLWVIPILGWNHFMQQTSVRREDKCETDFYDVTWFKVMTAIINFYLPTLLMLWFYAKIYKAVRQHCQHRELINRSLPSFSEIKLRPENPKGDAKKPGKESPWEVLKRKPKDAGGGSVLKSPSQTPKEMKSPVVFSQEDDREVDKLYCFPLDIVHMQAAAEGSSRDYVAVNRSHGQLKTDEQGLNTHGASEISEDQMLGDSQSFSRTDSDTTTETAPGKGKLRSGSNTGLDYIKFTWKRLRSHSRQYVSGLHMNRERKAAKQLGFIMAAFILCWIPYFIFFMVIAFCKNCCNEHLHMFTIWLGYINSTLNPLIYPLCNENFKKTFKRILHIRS

The Emax is the maximal effect, on the per cent scale that the assay sets. Broadly, the IC50 is the concentration needed to halve the response being measured. Higher therefore signals a need for much substance. `CN(c1nccc(=O)[nH]1)C1CCN(c2nc3ccccc3n2Cc2ccc(F)cc2)CC1` [mizolastine] came in with an Emax of 51.7 ± 19.4% and a concentration for half-maximal inhibition (IC50) of 3.84 ± 0.79 nM.

The record behind these values is PMC10762250, “Molecular mechanism of antihistamines recognition and regulation of the histamine H1 receptor” (Nature Communications, 2024).
